Over roughly 81,000 sequences, “one-hybrid fitness for binding parS DNA” has its median near -0.17; the highest 2% begin near 0.51. The list shows a part of the results.
B1: Caulobacter ParB omega fusion; a variant is named by its letters at X, in order, B8GW30 (parent)
chain: MESVVVGEPGMSEGRRGLGRGLSALLGEVDAAPAQAPGEQLGGSREAPIEILQRNPDQPRRTFREEDLEDLSNSIREKGVLQPILVRPSPDTAGEYQIVAGERAWRAAQRAGLKTVPIMVRELDDLAVLEIGIIENVQRADLNVLEEALSYKVLMEKFERTQENIAQTIGKSXSHVANXMRLLXLPDEVQSYLVSGELTAXHARAIAAAADPVALAKQIIEGGLSVRETEALARKAPNLSAGKSKGGRPPRVKDTDTQALESDLSSVLGLDVSIDHRGSTGTLTITYATLEQLDDLCNRLTRGI

Variants of: B1
Assay: one-hybrid fitness for binding parS DNA (scaled: cognate 1, non-cognate 0); higher = stronger binding
Settings: with parS DNA site
In short: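 Bacterial one-hybrid selection in E. coli USO rpoZ- hisB- pyrF- with a HIS3 reporter carrying the site 19 bp from the promoter, screening Caulobacter ParB libraries with four specificity codons randomised (NNS). Cells grew 48 hours at 37°C on M9-minus-histidine plus 0.1 mM IPTG and 5 mM 3-AT. Plasmids before and after selection were Illumina-sequenced, three replicate libraries pooled, and variants under 10 reads dropped. Fitness is the log change in variant-to-wild-type read ratio, rescaled to cognate 1, non-cognate 0.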

| Variant | one-hybrid fitness for binding parS DNA |
| --- | --- |
| RHKM | 0.358 |
| EMIS | ≤ 0.2 |
| DWKF | ≤ 0.2 |
| HDYC | ≤ 0.2 |
| MFGS | ≤ 0.2 |
| AATH | ≤ 0.2 |
| QFTA | ≤ 0.2 |
| TADS | ≤ 0.2 |
| ECLG | ≤ 0.2 |
| GRMF | ≤ 0.2 |
| HLPI | ≤ 0.2 |
| NMPA | ≤ 0.2 |
| KTIC | ≤ 0.2 |
| VRKT | ≤ 0.2 |
| GWPW | ≤ 0.2 |
| SYVG | ≤ 0.2 |
| SAYV | ≤ 0.2 |
| SVEV | ≤ 0.2 |
| GPHS | ≤ 0.2 |
| NLPM | ≤ 0.2 |
| ALPI | ≤ 0.2 |
| GPWM | ≤ 0.2 |
| ILGV | ≤ 0.2 |
| PIGA | ≤ 0.2 |
| YHWR | ≤ 0.2 |

| Variant | one-hybrid fitness for binding parS DNA |
| --- | --- |
| CHQA | ≤ 0.2 |
| AKIM | ≤ 0.2 |
| KQQC | ≤ 0.2 |
| KWRC | ≤ 0.2 |
| STRN | ≤ 0.2 |
| QTSF | ≤ 0.2 |
| IHDA | ≤ 0.2 |
| LWER | ≤ 0.2 |
| LQFT | ≤ 0.2 |
| FCTC | ≤ 0.2 |
| TPPA | ≤ 0.2 |
| TLAL | ≤ 0.2 |
| PSWM | ≤ 0.2 |
| NILG | ≤ 0.2 |
| PAVL | ≤ 0.2 |
| PCET | ≤ 0.2 |
| CKSF | ≤ 0.2 |
| PTQA | ≤ 0.2 |
| RVTG | 0.992 |
| DGDP | ≤ 0.2 |
| YSAW | ≤ 0.2 |
| VAKL | ≤ 0.2 |
| IVKS | ≤ 0.2 |
| FVSR | ≤ 0.2 |
| QVKK | ≤ 0.2 |

| Variant | one-hybrid fitness for binding parS DNA |
| --- | --- |
| QCGQ | ≤ 0.2 |
| CGAF | ≤ 0.2 |
| KHKA | ≤ 0.2 |
| HRRQ | ≤ 0.2 |
| SNIK | ≤ 0.2 |
| FWPY | ≤ 0.2 |
| KVPW | ≤ 0.2 |
| SYRL | ≤ 0.2 |
| PMEF | ≤ 0.2 |
| KTNT | ≤ 0.2 |
| VGAS | ≤ 0.2 |
| GAAT | ≤ 0.2 |
| NYLL | ≤ 0.2 |
| VWER | ≤ 0.2 |
| KIAI | ≤ 0.2 |
| WLRT | ≤ 0.2 |
| LTDT | ≤ 0.2 |
| NSVR | ≤ 0.2 |
| IVRW | ≤ 0.2 |
| SPYS | ≤ 0.2 |
| IYTC | ≤ 0.2 |
| GLRF | ≤ 0.2 |
| WTDD | ≤ 0.2 |
| YFMT | ≤ 0.2 |
| DFSG | ≤ 0.2 |

| Variant | one-hybrid fitness for binding parS DNA |
| --- | --- |
| SFFR | ≤ 0.2 |
| KRHD | ≤ 0.2 |
| MREN | ≤ 0.2 |
| REAN | ≤ 0.2 |
| HDAG | ≤ 0.2 |
| ARIN | ≤ 0.2 |
| THPT | ≤ 0.2 |
| PWRI | ≤ 0.2 |
| INAG | ≤ 0.2 |
| EGHK | ≤ 0.2 |
| YCAA | ≤ 0.2 |
| WQLG | ≤ 0.2 |
| HMKG | ≤ 0.2 |
| IWAS | ≤ 0.2 |
| RQPG | 0.514 |
| TPMV | ≤ 0.2 |
| VKHD | ≤ 0.2 |
| DYWS | 0.31 |
| QTEW | ≤ 0.2 |
| NGVL | ≤ 0.2 |
| WQDG | ≤ 0.2 |
| SPRW | ≤ 0.2 |
| TREP | ≤ 0.2 |
| APLV | ≤ 0.2 |
| CQTP | ≤ 0.2 |

| Variant | one-hybrid fitness for binding parS DNA |
| --- | --- |
| QPFT | ≤ 0.2 |
| GGHV | ≤ 0.2 |
| ADNQ | ≤ 0.2 |
| TGHT | ≤ 0.2 |
| CIEL | ≤ 0.2 |
| KSHI | ≤ 0.2 |
| PACS | ≤ 0.2 |
| CMNP | ≤ 0.2 |
| QKGI | ≤ 0.2 |
| DYGT | ≤ 0.2 |
| DKQI | ≤ 0.2 |
| GIEL | ≤ 0.2 |
| SAVY | ≤ 0.2 |
| TLIG | ≤ 0.2 |
| WQQR | ≤ 0.2 |
| QTKD | ≤ 0.2 |
| TCHV | ≤ 0.2 |
| RSNS | 0.959 |
| LMTQ | ≤ 0.2 |
| FDKR | ≤ 0.2 |
| RFGW | ≤ 0.2 |
| MQVH | ≤ 0.2 |
| SRTG | ≤ 0.2 |
| HSCW | ≤ 0.2 |
| DVDT | ≤ 0.2 |

| Variant | one-hybrid fitness for binding parS DNA |
| --- | --- |
| APYH | ≤ 0.2 |
| DHTG | ≤ 0.2 |
| TSSD | ≤ 0.2 |
| GPTR | ≤ 0.2 |
| SGQG | ≤ 0.2 |
| HDLD | ≤ 0.2 |
| VKRT | ≤ 0.2 |
| DIGG | ≤ 0.2 |
| QCGN | ≤ 0.2 |
| FICS | ≤ 0.2 |
| ADPR | ≤ 0.2 |
| RERK | ≤ 0.2 |
| IKTF | ≤ 0.2 |
| MHLI | ≤ 0.2 |
| TLVG | ≤ 0.2 |
| VKYA | ≤ 0.2 |
| RKWW | 0.244 |
| AEPE | ≤ 0.2 |
| KCEI | ≤ 0.2 |
| DDRY | ≤ 0.2 |
| NYNT | ≤ 0.2 |
| MCKR | ≤ 0.2 |
| TKPR | ≤ 0.2 |
| HVDR | ≤ 0.2 |
| LDLC | ≤ 0.2 |

| Variant | one-hybrid fitness for binding parS DNA |
| --- | --- |
| NITD | ≤ 0.2 |
| MYHS | ≤ 0.2 |
| IGVR | ≤ 0.2 |
| PTKY | ≤ 0.2 |
| YVAW | ≤ 0.2 |
| IMYD | ≤ 0.2 |
| DGVK | ≤ 0.2 |
| RQVS | 0.937 |
| FPKS | ≤ 0.2 |
| LPTL | ≤ 0.2 |
| SNSE | ≤ 0.2 |
| SHHP | ≤ 0.2 |
| NICT | ≤ 0.2 |
| PAIC | ≤ 0.2 |
| QYAY | ≤ 0.2 |
| AFTE | ≤ 0.2 |
| QPSS | ≤ 0.2 |
| YCSF | ≤ 0.2 |
| HFMG | ≤ 0.2 |
| HYLY | ≤ 0.2 |
| CLVD | ≤ 0.2 |
| DSWV | ≤ 0.2 |
| ALRR | ≤ 0.2 |
| HNNV | ≤ 0.2 |
| LSQY | ≤ 0.2 |

| Variant | one-hybrid fitness for binding parS DNA |
| --- | --- |
| CMTG | ≤ 0.2 |
| HGTE | ≤ 0.2 |
| HRQS | 0.374 |
| WKRG | ≤ 0.2 |
| AGRI | ≤ 0.2 |
| LTKV | ≤ 0.2 |
| RCVL | ≤ 0.2 |
| EYLS | ≤ 0.2 |
| TPGL | ≤ 0.2 |
| PETT | ≤ 0.2 |
| KTLR | ≤ 0.2 |
| FVAG | ≤ 0.2 |
| CLMF | ≤ 0.2 |
| VESW | ≤ 0.2 |
| KVAR | ≤ 0.2 |
| EARP | ≤ 0.2 |
| DIHE | ≤ 0.2 |
| PCLF | ≤ 0.2 |
| PPCA | ≤ 0.2 |
| AWPY | ≤ 0.2 |

Source: a collection of fitness landscapes (doi:10.1016/j.celrep.2020.107928)
